Consider 24 compounds from PubChem BioAssay AID463173 (ICCB-Longwood Screening Facility, Harvard Medical School, 2010).

Among all 52,000 compounds or so, about 1,700 (3.3%) were called active. Cut-off read from the data, not from the text of the source: active = survival mostly below about 52% (no sharp cut-off); inactive = mostly above about 56%. Some of the results follow.

The test has as its system Wild type. The test can be described thus: growth inhibition of S. aureus wild type versus tarO mutant, primary screen, teichoic acid synthesis inhibitors, RN4220, OD600 (AID 463173). Particulars: S. aureus RN4220 wild type/DeltatarO growth, OD600, 18 h, stronger effect = lower value, screened at 18.75 µg/mL (by protocol).
On to `COC1CCCC(C(=O)Nn2c(C3CC3)nc3ccccc3c2=O)C1` (centres undefined), for which the survival is inactive: 116%.
Then `COc1ccc(OC)c(CNS(=O)(=O)c2cc(-c3onc(C)c3C)ccc2C)c1`, with inactive: 64%; and `CCN(CC)C(=O)c1sc2c(c1C)c(=O)n(-c1ccc(C)c(C)c1)c(=O)n2CC(=O)Nc1ccc(OC)cc1OC`, with inactive: 73%; and `Cc1cc(F)ccc1NC(=O)CCS(=O)(=O)c1cc2c3c(c1)CCN3C(=O)CC2`, with inactive: 75%.
The same measure for `COc1ccc(/C=C/C(=O)Nc2cc(-c3nc4ccccc4o3)ccc2OC)cc1`: inactive: 65%; for `CC(=O)c1ccc(NC(=O)CSc2nnc(-c3ccncc3)n2-c2ccccc2)cc1`: inactive: 70%; for `CCS(=O)(=O)N1CC(=O)N(c2cc(C)cc(C)c2)C(C)(C(=O)NC2CCCCC2)C1` (centres undefined): inactive: 73%.
The same measure for `Cc1cc(C)n2c(Nc3ccc4c(c3)OCCO4)c(-c3ccccc3)nc2n1`: inactive: 141%.
As to `COc1ccc(N2CCN(CCCNC(=O)c3nnc(Cc4ccccc4Cl)o3)CC2)cc1`, the survival was inactive: 74%.
The same measure for `Cc1ccc(S(=O)(=O)c2[nH]c(-c3ccccc3)nc2SC(C)C(=O)O)cc1` (centres undefined): inactive: 82%; for `COc1ccc(-n2c(SC)nc3sc4c(c3c2=O)CCN(C(C)=O)C4)cc1`: inactive: 126%.
As for `FC(F)(F)c1cccc(N2CCN(c3nc4ccccc4n4cnnc34)CC2)c1`, the survival is active: 2%.
The same measure for `Cc1ccc(NC(=O)CSc2nnc(-c3cc4occc4n3C)n2-c2ccccc2C)c(C)c1`: inactive: 79%.
Then `COc1ccc(CNC(=O)C2CCN(C(=O)c3cnn(-c4ccccc4)c3-n3cccc3)CC2)cc1`, with inactive: 90%.
The same measure for `COC(=O)c1ccccc1NC(=O)CSc1n[nH]c(C)n1`: inactive: 77%; for `Cc1ccc2c(c1)N(C(=O)Nc1ccc(Br)cc1F)CCO2`: inactive: 81%; for `Cc1ccn2c(=O)cc(COc3ccc(NC(=O)C(C)(C)C)cc3)nc2c1`: inactive: 83%.
For `CC(C)Oc1ccc(CNC(=O)CN2C(=O)c3cccnc3Oc3ccc(Cl)cc32)cc1`, the survival was inactive: 126%.
Then `O=C1CSC(=O)N1CNc1cc(Cl)ccc1Cl`, with inactive: 116%.
The same measure for `CCS(=O)(=O)N1CCc2cc(C(=O)NC(C)c3ccccc3)ccc21` (centres undefined): inactive: 90%; for `O=c1c2sc3ccccc3c2n(Cc2cccc(C(F)(F)F)c2)c(=O)n1-c1ccccc1`: inactive: 60%; for `CCCCCn1c(=N)c(S(=O)(=O)c2ccc(C)cc2)cc2c(=O)n3cc(C)ccc3nc21`: inactive: 75%.
In the case of `Cn1c(COc2ccccc2C(C)(C)C)nc2ccccc21`, the survival was active: -17%.
Then `COc1ccc(S(=O)(=O)c2cc3cc(C(C)(C)C)cc(O)c3oc2=O)cc1`, with active: 10%.
